The other results are listed elsewhere or left out. The energies were worked out here from pooled read counts, against the library average; single values are noisy.

The assay concerns the target T1, Pho4 (S. cerevisiae) (UniProt P07270).
T1 sequence: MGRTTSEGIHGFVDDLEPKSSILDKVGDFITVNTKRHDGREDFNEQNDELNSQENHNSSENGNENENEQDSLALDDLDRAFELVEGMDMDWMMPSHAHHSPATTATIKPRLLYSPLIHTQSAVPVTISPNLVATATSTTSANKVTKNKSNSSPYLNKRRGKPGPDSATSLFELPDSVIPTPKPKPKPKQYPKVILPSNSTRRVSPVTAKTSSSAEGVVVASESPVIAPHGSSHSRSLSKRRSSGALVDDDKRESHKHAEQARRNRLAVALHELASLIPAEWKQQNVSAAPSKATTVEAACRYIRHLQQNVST
Nature of the assay: relative binding free energy (BET-seq); higher = weaker binding. As to conditions: reference: library average.
For the sequence AATGGCACGTGTGGGT, the “relative binding free energy” value was found to be 0 kcal/mol. In the case of CATTGCACGTGGGCTG it was -0.08 kcal/mol. In the case of TTCGTCACGTGAGAAT it was 0.51 kcal/mol; in that of GGATGCACGTGGTCGA, -0.15 kcal/mol; in that of AAGGACACGTGCGGTG, -0.07 kcal/mol. In the case of AGCAGCACGTGAAGGG it was 0.18 kcal/mol; in that of TGGAACACGTGTTTGT, -0.01 kcal/mol; in that of TTACTCACGTGGGGCG, -0.07 kcal/mol.

As to GGACGCACGTGGGTGC, the “relative binding free energy” value is -0.19 kcal/mol.

GAGTGCACGTGGCATT: the “relative binding free energy” value was 0.04 kcal/mol. Consider GTATGCACGTGGGAAT, for which the “relative binding free energy” value was -0.03 kcal/mol. In the case of GTAAACACGTGATAGG it was 0.13 kcal/mol. In the case of GATAACACGTGTAGTT it was 0.1 kcal/mol.

Consider GGCGTCACGTGTGGTC, for which the “relative binding free energy” value was 0.19 kcal/mol.

Turning to TCCGTCACGTGGAGTT, the “relative binding free energy” value was determined as 0.23 kcal/mol.

Turning to CTCTTCACGTGTGAGG, the “relative binding free energy” value amounted to 0.34 kcal/mol.

As to AATTACACGTGTGCAT, the “relative binding free energy” value amounted to 0.16 kcal/mol.

In the case of ATGGACACGTGTCTGG, the “relative binding free energy” value is -0.03 kcal/mol. For the sequence GTTATCACGTGTTTCT, the “relative binding free energy” value is 0.28 kcal/mol.

As to GTCCTCACGTGGTTTT, the “relative binding free energy” value is 0.43 kcal/mol. In the case of CGGTGCACGTGTAATT it was 0.09 kcal/mol; in that of TGGGGCACGTGCGATA, -0.24 kcal/mol. In the case of TATAGCACGTGGTACT, the “relative binding free energy” value is -0.1 kcal/mol. In the case of AATTGCACGTGTCGGG it was 0.03 kcal/mol; in that of TAAATCACGTGTGGAT, 0.24 kcal/mol. Regarding AGATGCACGTGCGTTT, the “relative binding free energy” value was -0.04 kcal/mol. In the case of TGGAGCACGTGCATGT it was -0.27 kcal/mol. In the case of TGTAGCACGTGCATTT it was -0.1 kcal/mol; in that of AGTGACACGTGGGGAT, -0.15 kcal/mol; in that of GCGGGCACGTGAGGGG, 0.12 kcal/mol. Take AGCTGCACGTGTAGGT: the “relative binding free energy” value is -0.01 kcal/mol. In the case of TAATACACGTGTGAGG it was 0.05 kcal/mol; in that of TTATTCACGTGTACGT, 0.19 kcal/mol. Consider TTGAGCACGTGGTAAT, for which the “relative binding free energy” value stood at 0.03 kcal/mol. In the case of GAGGCCACGTGGGTCT it was -0.08 kcal/mol; in that of GTTTTCACGTGTCGGA, 0.46 kcal/mol. In the case of CAGGTCACGTGTTTGA it was 0.04 kcal/mol; in that of GGGTACACGTGACTTT, 0.3 kcal/mol; in that of TGCGTCACGTGCAGTG, 0.1 kcal/mol. In the case of AGTATCACGTGGCTGG it was 0.03 kcal/mol. GGTAACACGTGAGGTA: the “relative binding free energy” value is 0.17 kcal/mol. In the case of CGGGTCACGTGCCGGG it was -0.01 kcal/mol; in that of TCTGACACGTGATGTG, 0.11 kcal/mol; in that of GTTGTCACGTGGTTAG, 0.13 kcal/mol.

In the case of AAGTTCACGTGCGTAT, the “relative binding free energy” value came to 0.18 kcal/mol. In the case of TCTGTCACGTGTTAAT it was 0.14 kcal/mol. In the case of TGGCCCACGTGTGTGT it was -0.06 kcal/mol; in that of TAATTCACGTGAGTCG, 0.46 kcal/mol.

Consider TTTGTCACGTGATTAG, for which the “relative binding free energy” value was determined as 0.19 kcal/mol. In the case of AGACGCACGTGGGTAT it was -0.26 kcal/mol; in that of GAAGTCACGTGAAGAT, 0.42 kcal/mol. In the case of TTTTGCACGTGTCCGT it was 0.03 kcal/mol; in that of GGTTTCACGTGTTCTA, 0.41 kcal/mol. In the case of CGGGACACGTGGTGAA it was -0.05 kcal/mol; in that of TGTGCCACGTGGTAAT, -0.11 kcal/mol; in that of GATAGCACGTGGGACG, -0.07 kcal/mol. Take TTAGTCACGTGTCATT: the “relative binding free energy” value came out at 0.08 kcal/mol. In the case of GTTTGCACGTGGATAG it was 0.06 kcal/mol. In the case of GGTCCCACGTGGTTGT, the “relative binding free energy” value was -0.1 kcal/mol. In the case of TGGGTCACGTGTTTGT it was 0.08 kcal/mol; in that of GATGCCACGTGGGGTG, -0.24 kcal/mol; in that of TTTATCACGTGTGTAA, 0.17 kcal/mol.

On to TAATACACGTGCGGGT, for which the “relative binding free energy” value was 0.05 kcal/mol. In the case of TATGGCACGTGTTCGA it was -0.15 kcal/mol; in that of AAGTACACGTGTTATG, 0.09 kcal/mol. As to TTATGCACGTGCTGGT, the “relative binding free energy” value was -0.03 kcal/mol. Turning to TCATTCACGTGTATGA, the “relative binding free energy” value stood at 0.42 kcal/mol. In the case of TGTGCCACGTGTGAGT it was -0.07 kcal/mol; in that of TTGGGCACGTGTACTT, -0.06 kcal/mol. In the case of TTAGTCACGTGATTGT it was 0.28 kcal/mol; in that of TTTCTCACGTGTTTGT, 0.29 kcal/mol. In the case of GTGGGCACGTGTATGT it was 0 kcal/mol.

As for TAAGCCACGTGGGATG, the “relative binding free energy” value is -0.06 kcal/mol. In the case of ATTACCACGTGTGAGT it was 0.03 kcal/mol. In the case of TCAGGCACGTGGATAG it was -0.1 kcal/mol. In the case of GTTACCACGTGGAGTT it was 0.09 kcal/mol.

On to GTTTTCACGTGATTAG, for which the “relative binding free energy” value was found to be 0.31 kcal/mol. In the case of TAATTCACGTGATTGA it was 0.38 kcal/mol; in that of CAGTTCACGTGATGGT, 0.26 kcal/mol. In the case of AGGATCACGTGGGGAC it was 0.01 kcal/mol; in that of CATTGCACGTGATGTA, -0.01 kcal/mol. For ACAATCACGTGTTGGG, the “relative binding free energy” value came to 0.16 kcal/mol. In the case of AGCGGCACGTGAGATT it was 0.24 kcal/mol. In the case of CATTGCACGTGACGGG it was 0.16 kcal/mol. In the case of CGTGTCACGTGTGGTA, the “relative binding free energy” value turned out to be 0.08 kcal/mol.

For the sequence AAATTCACGTGGTATG, the “relative binding free energy” value was determined as 0.24 kcal/mol.

Turning to TGAGGCACGTGGGTTC, the “relative binding free energy” value was -0.09 kcal/mol.

As to TGGCACACGTGTTGTA, the “relative binding free energy” value worked out at 0.27 kcal/mol.

Take TGTATCACGTGTGTAC: the “relative binding free energy” value was determined as 0.13 kcal/mol. As to TTGTTCACGTGGGCAG, the “relative binding free energy” value is 0.04 kcal/mol. In the case of GGTCTCACGTGTTTAT it was 0.22 kcal/mol. In the case of GAAAGCACGTGTCGGT it was 0.04 kcal/mol; in that of GTTGACACGTGTATAG, 0.12 kcal/mol; in that of CGGGGCACGTGGCCGT, -0.2 kcal/mol. In the case of TTATGCACGTGAGATT it was 0.15 kcal/mol; in that of TGCGTCACGTGTAGTG, 0.13 kcal/mol; in that of AAGGGCACGTGTTGCT, 0.01 kcal/mol. Take GAGGCCACGTGTCGTG: the “relative binding free energy” value is 0.14 kcal/mol.

In the case of TTATTCACGTGTTGGC, the “relative binding free energy” value came out at 0.3 kcal/mol. In the case of CTTAGCACGTGTTTTA it was -0.11 kcal/mol. In the case of ATGTACACGTGGGTTT it was -0.03 kcal/mol; in that of TGAGTCACGTGACTAG, 0.24 kcal/mol. GGGATCACGTGAGTTG: the “relative binding free energy” value was determined as 0.19 kcal/mol. In the case of TCATGCACGTGTTTGA it was -0.06 kcal/mol.

For GGCTGCACGTGGATTT, the “relative binding free energy” value was found to be 0.07 kcal/mol. In the case of CTTGGCACGTGTTGTG, the “relative binding free energy” value is -0.07 kcal/mol. For the sequence GGAGGCACGTGGAGGG, the “relative binding free energy” value is -0.02 kcal/mol. In the case of TTTGCCACGTGTTACT it was -0.04 kcal/mol; in that of TCTATCACGTGGGTGG, 0 kcal/mol; in that of AGGAGCACGTGTATGT, -0.19 kcal/mol. In the case of ATATGCACGTGGAGGG it was -0.06 kcal/mol.

For the sequence TGCCTCACGTGAGGTT, the “relative binding free energy” value came to 0.37 kcal/mol. In the case of GTAGGCACGTGGTTGT it was -0.1 kcal/mol; in that of GGGGACACGTGGTGAG, 0.03 kcal/mol. Regarding TGTAGCACGTGGAAGA, the “relative binding free energy” value was -0.02 kcal/mol.

For the origin of these results see the BET-seq Pho4 binding data (Le et al. 2018).
